The text below walks through data of article PMC9911399, “Two distinct binding modes provide the RNA-binding protein RbFox with extraordinary sequence specificity”.

Positions count from the first letter of the chain named. The list shows a part of the results.

T1: RBFOX1 RRM (Homo sapiens, UniProt Q9NWB1 109-208)
T1 sequence: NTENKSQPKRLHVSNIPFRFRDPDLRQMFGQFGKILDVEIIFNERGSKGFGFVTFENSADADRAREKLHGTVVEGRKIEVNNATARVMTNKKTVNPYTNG

B1: GAGGGUC (DNA:RNA)
RNA: GGGAGACCGGAAUUCAGAUUGUCCGAGGGUCUUAAAUCCCGUCGUAGCCACCA
DNA 1: CAATCTGAATTCCGGTCTCCC
DNA 2: TGGTGGCTACGACGGGATT
B2: GGCGAGU (DNA:RNA)
RNA: B1 RNA with A26G, G27C, G29A, U30G, C31U
DNA 1: CAATCTGAATTCCGGTCTCCC
DNA 2: TGGTGGCTACGACGGGATT
B3: AAGGGGA (DNA:RNA)
RNA: B1 RNA with G25A, U30G, C31A
DNA 1: CAATCTGAATTCCGGTCTCCC
DNA 2: TGGTGGCTACGACGGGATT
B4: AAUGUUC (DNA:RNA)
RNA: B1 RNA with G25A, G27U, G29U
DNA 1: CAATCTGAATTCCGGTCTCCC
DNA 2: TGGTGGCTACGACGGGATT
B5: AGACCGA (DNA:RNA)
RNA: GGGAGACCGGAAUUCAGAUUGUCCAGACCGAUUAAAUCCCGUCGUAGCCACCA
DNA 1: CAATCTGAATTCCGGTCTCCC
DNA 2: TGGTGGCTACGACGGGATT
B6: GUCAGCC (DNA:RNA)
RNA: B1 RNA with A26U, G27C, G28A, U30C
DNA 1: CAATCTGAATTCCGGTCTCCC
DNA 2: TGGTGGCTACGACGGGATT
B7: AGCUUCG (DNA:RNA)
RNA: B5 RNA with A27C, C28U, C29U, G30C, A31G
DNA 1: CAATCTGAATTCCGGTCTCCC
DNA 2: TGGTGGCTACGACGGGATT
B8: UCACUUG (DNA:RNA)
RNA: B5 RNA with A25U, G26C, C29U, G30U, A31G
DNA 1: CAATCTGAATTCCGGTCTCCC
DNA 2: TGGTGGCTACGACGGGATT
B9: GUUUGAC (DNA:RNA)
RNA: B1 RNA with A26U, G27U, G28U, U30A
DNA 1: CAATCTGAATTCCGGTCTCCC
DNA 2: TGGTGGCTACGACGGGATT
B10: AUUUGAG (DNA:RNA)
RNA: B5 RNA with G26U, A27U, C28U, C29G, G30A, A31G
DNA 1: CAATCTGAATTCCGGTCTCCC
DNA 2: TGGTGGCTACGACGGGATT
B11: GGUUGUA (DNA:RNA)
RNA: B1 RNA with A26G, G27U, G28U, C31A
DNA 1: CAATCTGAATTCCGGTCTCCC
DNA 2: TGGTGGCTACGACGGGATT
B12: CUCGUUC (DNA:RNA)
RNA: B1 RNA with G25C, A26U, G27C, G29U
DNA 1: CAATCTGAATTCCGGTCTCCC
DNA 2: TGGTGGCTACGACGGGATT
B13: CACGUGC (DNA:RNA)
RNA: B1 RNA with G25C, G27C, G29U, U30G
DNA 1: CAATCTGAATTCCGGTCTCCC
DNA 2: TGGTGGCTACGACGGGATT
B14: CUAACUU (DNA:RNA)
RNA: B5 RNA with A25C, G26U, C28A, G30U, A31U
DNA 1: CAATCTGAATTCCGGTCTCCC
DNA 2: TGGTGGCTACGACGGGATT
B15: AUGCAGA (DNA:RNA)
RNA: B5 RNA with G26U, A27G, C29A
DNA 1: CAATCTGAATTCCGGTCTCCC
DNA 2: TGGTGGCTACGACGGGATT
B16: CCUUCAA (DNA:RNA)
RNA: B5 RNA with A25C, G26C, A27U, C28U, G30A
DNA 1: CAATCTGAATTCCGGTCTCCC
DNA 2: TGGTGGCTACGACGGGATT
B17: CCCGUCC (DNA:RNA)
RNA: B1 RNA with G25C, A26C, G27C, G29U, U30C
DNA 1: CAATCTGAATTCCGGTCTCCC
DNA 2: TGGTGGCTACGACGGGATT
B18: UUGUUCA (DNA:RNA)
RNA: B5 RNA with A25U, G26U, A27G, C28U, C29U, G30C
DNA 1: CAATCTGAATTCCGGTCTCCC
DNA 2: TGGTGGCTACGACGGGATT
B19: GUAGACG (DNA:RNA)
RNA: B1 RNA with A26U, G27A, G29A, U30C, C31G
DNA 1: CAATCTGAATTCCGGTCTCCC
DNA 2: TGGTGGCTACGACGGGATT
B20: UAUCCCA (DNA:RNA)
RNA: B5 RNA with A25U, G26A, A27U, G30C
DNA 1: CAATCTGAATTCCGGTCTCCC
DNA 2: TGGTGGCTACGACGGGATT

This assay addresses T1, RBFOX1 RRM. Put plainly: EMSA; HiTS-Eq, 1 nM pool, 10 min; buffer printed only for the single-RNA assays: 10 mM Tris pH 7.5, 150 mM NaCl, 3.4 mM EDTA, 0.001% NP-40, 30 C. The conditions noted are these: tags: His6 N-terminal (pET28a); label: 5' 32P. An outline of the steps:
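Purified RbFox RRM, wild type or mutant, was incubated for 10 min in 50 µL with 1 nM of a 5′-radiolabelled RNA pool carrying 7 randomized nucleotides, whose flanks were annealed to DNA oligonucleotides, over a series of increasing protein concentrations. Unbound RNA was resolved on 8% native PAGE, cut out, reverse-transcribed, barcoded by PCR and sequenced on an Illumina HiSeq 2500. Relative association constants were derived from changes in read counts for each RNA species versus the control reaction and normalised to the cognate motif.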
Background: In EMSA bound probe runs differently from free probe, usually more slowly.
Take B1: the binding signal was 0.0179 KA relative to UGCAUGU.

In the case of B2, the binding signal was 0.0177 KA relative to UGCAUGU. Under B3 stands 0.00669 KA relative to UGCAUGU; under B4, 0.0103 KA relative to UGCAUGU.

As for B5, the binding signal was 0.0069 KA relative to UGCAUGU. As for B6, the binding signal is 0.0117 KA relative to UGCAUGU. The figure for B7 is 0.0148 KA relative to UGCAUGU; for B8 it is 0.00877 KA relative to UGCAUGU.

Turning to B9, the binding signal is 0.0185 KA relative to UGCAUGU. Under B10 stands 0.017 KA relative to UGCAUGU; under B11, 0.0162 KA relative to UGCAUGU. For B12, the binding signal was 0.0112 KA relative to UGCAUGU.

In the case of B13, the binding signal is 0.00811 KA relative to UGCAUGU. Under B14 stands 0.00453 KA relative to UGCAUGU. For B15, the binding signal is 0.0122 KA relative to UGCAUGU.

For the molecule B16, the binding signal was 0.00424 KA relative to UGCAUGU. Turning to B17, the binding signal was 0.0149 KA relative to UGCAUGU. The figure for B18 is 0.0181 KA relative to UGCAUGU. The figure for B19 is 0.0104 KA relative to UGCAUGU. Under B20 stands 0.00164 KA relative to UGCAUGU.
